Results from PMC12292926.
No constants are given. Whether binding was seen depends on the method and setting. Binding seen in cells or lysates may run through a third protein. Some results given as binding are weak or reduced against the parent protein; the word gives no strength. For part of these data: Sequences can lack the tags named with a protein.

Chains of the proteins cited; added tags and fusions are not shown. Lines headed by an entry give the natural chain unless they say otherwise; changes in a name come on top. A line that says so, or that is headed by a name, gives the form on record, which may keep a tag or linker. Residues count along the entry.
UniProt Q8IZL8: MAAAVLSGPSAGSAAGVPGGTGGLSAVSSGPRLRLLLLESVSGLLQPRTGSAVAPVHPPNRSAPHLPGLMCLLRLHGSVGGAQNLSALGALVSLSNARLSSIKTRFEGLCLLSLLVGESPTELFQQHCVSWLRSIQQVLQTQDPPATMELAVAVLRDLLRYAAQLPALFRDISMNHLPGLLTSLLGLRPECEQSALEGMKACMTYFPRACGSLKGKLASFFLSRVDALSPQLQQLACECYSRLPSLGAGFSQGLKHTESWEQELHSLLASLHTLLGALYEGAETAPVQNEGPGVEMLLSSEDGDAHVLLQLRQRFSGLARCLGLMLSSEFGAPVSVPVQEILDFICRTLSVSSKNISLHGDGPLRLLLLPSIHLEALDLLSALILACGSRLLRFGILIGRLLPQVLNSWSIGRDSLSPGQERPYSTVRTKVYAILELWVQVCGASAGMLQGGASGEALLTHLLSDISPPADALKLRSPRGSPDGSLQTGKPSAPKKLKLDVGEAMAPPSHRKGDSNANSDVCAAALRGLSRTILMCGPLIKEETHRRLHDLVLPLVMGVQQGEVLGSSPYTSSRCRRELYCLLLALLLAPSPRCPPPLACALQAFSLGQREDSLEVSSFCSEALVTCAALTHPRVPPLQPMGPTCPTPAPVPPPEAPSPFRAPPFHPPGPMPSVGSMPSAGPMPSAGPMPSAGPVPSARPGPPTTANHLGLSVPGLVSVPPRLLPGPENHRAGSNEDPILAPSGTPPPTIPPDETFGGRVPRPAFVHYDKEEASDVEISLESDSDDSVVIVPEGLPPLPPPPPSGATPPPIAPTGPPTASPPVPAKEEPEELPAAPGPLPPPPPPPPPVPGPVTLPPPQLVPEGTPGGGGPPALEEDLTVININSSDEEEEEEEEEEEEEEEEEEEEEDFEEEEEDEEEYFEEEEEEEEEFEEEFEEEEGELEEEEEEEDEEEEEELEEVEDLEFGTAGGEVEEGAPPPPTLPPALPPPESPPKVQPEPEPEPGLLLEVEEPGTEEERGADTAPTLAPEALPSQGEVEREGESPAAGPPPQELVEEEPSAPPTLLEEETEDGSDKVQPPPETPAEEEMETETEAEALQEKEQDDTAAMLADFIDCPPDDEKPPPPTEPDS
PELP1 Rix1 domain (residues 1 to 642), C-terminal FLAG tag: residues 1-642 of Q8IZL8
UniProt Q9H4L4, residues 303-574: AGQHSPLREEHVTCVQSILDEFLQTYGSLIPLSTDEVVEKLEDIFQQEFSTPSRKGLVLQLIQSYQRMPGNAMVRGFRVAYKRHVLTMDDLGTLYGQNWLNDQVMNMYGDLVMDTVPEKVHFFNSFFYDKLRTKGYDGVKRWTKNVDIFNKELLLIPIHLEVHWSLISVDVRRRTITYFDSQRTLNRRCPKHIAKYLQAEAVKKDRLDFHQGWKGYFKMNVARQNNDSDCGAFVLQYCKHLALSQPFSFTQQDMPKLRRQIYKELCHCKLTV

T1: TEX10, wild type, N-terminal GFP tag (human) (UniProt Q9NXF1)
T1 sequence: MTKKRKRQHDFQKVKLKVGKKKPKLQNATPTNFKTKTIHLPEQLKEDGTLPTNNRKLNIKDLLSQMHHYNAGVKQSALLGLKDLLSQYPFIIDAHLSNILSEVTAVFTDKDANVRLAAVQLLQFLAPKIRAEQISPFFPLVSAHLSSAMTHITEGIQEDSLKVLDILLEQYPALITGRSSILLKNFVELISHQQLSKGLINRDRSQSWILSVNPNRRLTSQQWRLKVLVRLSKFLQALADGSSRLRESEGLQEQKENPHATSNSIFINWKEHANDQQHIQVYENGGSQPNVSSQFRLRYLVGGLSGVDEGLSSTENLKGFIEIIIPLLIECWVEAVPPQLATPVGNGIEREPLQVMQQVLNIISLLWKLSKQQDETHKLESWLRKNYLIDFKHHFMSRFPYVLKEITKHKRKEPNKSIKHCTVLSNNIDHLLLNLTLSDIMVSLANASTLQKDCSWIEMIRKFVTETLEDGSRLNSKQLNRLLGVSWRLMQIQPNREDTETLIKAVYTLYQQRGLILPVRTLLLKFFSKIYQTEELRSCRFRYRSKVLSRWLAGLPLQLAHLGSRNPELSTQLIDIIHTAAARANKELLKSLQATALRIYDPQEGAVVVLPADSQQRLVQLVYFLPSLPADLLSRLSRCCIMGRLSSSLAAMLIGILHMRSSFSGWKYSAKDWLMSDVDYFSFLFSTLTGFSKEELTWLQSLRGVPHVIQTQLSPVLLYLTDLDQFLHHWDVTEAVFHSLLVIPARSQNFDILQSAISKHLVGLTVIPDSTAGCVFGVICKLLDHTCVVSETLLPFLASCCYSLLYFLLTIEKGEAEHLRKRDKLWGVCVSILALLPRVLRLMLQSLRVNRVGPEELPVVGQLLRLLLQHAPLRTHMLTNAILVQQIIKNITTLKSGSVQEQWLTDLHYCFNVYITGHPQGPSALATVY


Assays:
[1] = biological target: PELP1 Rix1 domain (residues 1 to 642), C-terminal FLAG tag (human), Q8IZL8; assay: co-IP; anti-FLAG M2 affinity gel; FLAG-tagged PELP1 variants as bait, exogenous rixosome subunits co-transfected in HEK293FT; lysis in 50 mM Hepes pH 7.5, 200 mM NaCl, 5 mM MgCl2, 10% glycerol, 0.5% NP-40, 1 mM DTT, 4°C; SDS-PAGE and Western blot; settings: remark: other sources report otherwise
[2] = biological target: PELP1 K826R (SUMOylation site lysine 826 to arginine) (human) (UniProt Q8IZL8); assay: as above
[3] = biological target: PELP1 Rix1 domain (residues 1 to 642), C-terminal FLAG tag (human) (UniProt Q8IZL8); assay: as above
[4] = biological target: PELP1, wild type, C-terminal FLAG tag (human) (UniProt Q8IZL8); assay: as above
[5] = biological target: T1, TEX10, wild type, N-terminal GFP tag (human); assay: co-IP; anti-GFP nanobody Sepharose; N-terminally GFP-tagged TEX10 variants as bait, exogenous rixosome including LAS1L-NOL9 co-transfected in HEK293FT; Western blot
[6] = biological target: SENP3 SUMO protease domain (residues 303 to 574), N-terminal FLAG tag (human) (UniProt Q9H4L4); assay: co-IP; anti-FLAG M2 affinity gel; N-terminally FLAG-tagged SENP3 truncations as bait, exogenous rixosome co-transfected in HEK293FT; Western blot

binding [1]	binding [2]	binding [3]	binding [4]	binding [5]	binding [6]	Binder
binds	–	–	–	–	–	TEX10, co-expressed rixosome subunit found with PELP1 or SENP3 baits, Q9NXF1 1-929 (protein) MTKKRKRQHDFQKVKLKVGKKKPKLQNATPTNFKTKTIHLPEQLKEDGTLPTNNRKLNIKDLLSQMHHYNAGVKQSALLGLKDLLSQYPFIIDAHLSNILSEVTAVFTDKDANVRLAAVQLLQFLAPKIRAEQISPFFPLVSAHLSSAMTHITEGIQEDSLKVLDILLEQYPALITGRSSILLKNFVELISHQQLSKGLINRDRSQSWILSVNPNRRLTSQQWRLKVLVRLSKFLQALADGSSRLRESEGLQEQKENPHATSNSIFINWKEHANDQQHIQVYENGGSQPNVSSQFRLRYLVGGLSGVDEGLSSTENLKGFIEIIIPLLIECWVEAVPPQLATPVGNGIEREPLQVMQQVLNIISLLWKLSKQQDETHKLESWLRKNYLIDFKHHFMSRFPYVLKEITKHKRKEPNKSIKHCTVLSNNIDHLLLNLTLSDIMVSLANASTLQKDCSWIEMIRKFVTETLEDGSRLNSKQLNRLLGVSWRLMQIQPNREDTETLIKAVYTLYQQRGLILPVRTLLLKFFSKIYQTEELRSCRFRYRSKVLSRWLAGLPLQLAHLGSRNPELSTQLIDIIHTAAARANKELLKSLQATALRIYDPQEGAVVVLPADSQQRLVQLVYFLPSLPADLLSRLSRCCIMGRLSSSLAAMLIGILHMRSSFSGWKYSAKDWLMSDVDYFSFLFSTLTGFSKEELTWLQSLRGVPHVIQTQLSPVLLYLTDLDQFLHHWDVTEAVFHSLLVIPARSQNFDILQSAISKHLVGLTVIPDSTAGCVFGVICKLLDHTCVVSETLLPFLASCCYSLLYFLLTIEKGEAEHLRKRDKLWGVCVSILALLPRVLRLMLQSLRVNRVGPEELPVVGQLLRLLLQHAPLRTHMLTNAILVQQIIKNITTLKSGSVQEQWLTDLHYCFNVYITGHPQGPSALATVY
–	binds	binds	binds	binds	binds	WDR18, co-expressed rixosome subunit (protein, UniProt Q9BV38 1-432) MAAPMEVAVCTDSAAPMWSCIVWELHSGANLLTYRGGQAGPRGLALLNGEYLLAAQLGKNYISAWELQRKDQLQQKIMCPGPVTCLTASPNGLYVLAGVAESIHLWEVSTGNLLVILSRHYQDVSCLQFTGDSSHFISGGKDCLVLVWSLCSVLQADPSRIPAPRHVWSHHALPITDLHCGFGGPLARVATSSLDQTVKLWEVSSGELLLSVLFDVSIMAVTMDLAEHHMFCGGSEGSIFQVDLFTWPGQRERSFHPEQDAGKVFKGHRNQVTCLSVSTDGSVLLSGSHDETVRLWDVQSKQCIRTVALKGPVTNAAILLAPVSMLSSDFRPSLPLPHFNKHLLGAEHGDEPRHGGLTLRLGLHQQGSEPSYLDRTEQLQAVLCSTMEKSVLGGQDQLRVRVTELEDEVRNLRKINRDLFDFSTRFITRPAK
